Laboratory results taken from PubChem BioAssay (NCATS).
This is one part of the list. The main result of the screen is listed elsewhere. These columns were measured beside it and carry no call. Compounds called inactive in the main read-out are mostly missing here. Words in brackets tell the shape of the fitted curve; partial curves, single points and poor fits give uncertain potencies.

Experiment: Cell-based coincidence reporter assay to measure PMP22 gene transcription in S16 Pmp22-F2sN cells - Confirmatory screen (AID 1508646)
Conditions: S16 Schwann cells Pmp22-F2sN, dual luciferase, 24 h
In short: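 Coincidence reporter read as sequential FLuc then NLuc luminescence (Nano-Glo Dual-Luciferase, 10 min each). Engineered S16 Pmp22-F2sN Schwann cells, 500-1,000 per well in DMEM/10% FBS, were exposed to compounds for 24 h, 37C.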

[1] = measured here: FLuc reporter channel
[2] = measured here: NLuc reporter channel
Tags tell the direction and shape of the fitted curve.

| SMILES | AC50 [1] | AC50 [2] |
| --- | --- | --- |
| Cc1cc(NC(=O)C2CCCN(S(=O)(=O)c3cccc4nonc34)C2)ccc1Br (centres undefined) | 17.2 µM [falling, partial curve] | 17.2 µM [falling, partial curve] |
| COc1ccccc1-c1cc(C(F)(F)F)nc(S(=O)(=O)CCCC(=O)Nc2ccccc2F)n1 | 6.11 µM [falling, full curve] | 7.69 µM [falling, full curve] |
| COc1ccc(N(CC(=O)Nc2cc(Cl)ccc2C)S(=O)(=O)c2c(C)noc2C)cc1 | 3.85 µM [falling, full curve, poor fit] | 4.32 µM [falling, full curve, poor fit] |
| CCOC(=O)c1ccc(N2C(=O)c3n[nH]c(-c4cccs4)c3C2c2ccc(O)c(OC)c2)cc1 (centres undefined) | 24.3 µM [falling, partial curve] | 24.3 µM [falling, partial curve] |
| COc1ccccc1-c1nc2c(c(SCC(=O)Nc3ccc(C)c(C)c3)n1)Cc1c(CO)cnc(C)c1O2 | 24.3 µM [falling, partial curve] | 30.6 µM [falling, single point] |
| CC(=O)OCC#CCSc1nnc(-c2cccc(Br)c2)o1 | 6.11 µM [falling, full curve, poor fit] | 19.3 µM [falling, partial curve] |
| Cc1ccc(C)c(NC(=O)Cn2c(=O)n(Cc3ccccc3)c(=O)c3oc4ccccc4c32)c1 | 24.3 µM [falling, partial curve] | 24.3 µM [falling, partial curve] |
